Reference: PubChem BioAssay AID1452 (National Center for Advancing Translational Sciences (NCATS), 2008)
In all, about 150,000 compounds went through this assay and about 190 (0.13%) were called active. Inconclusive means that the source gave no clear call. Such entries were picked first, then a sample of the others. Calls come from the whole dose curve; as a rule, active = well fitted inhibition curve with a large enough effect; inconclusive = small, poorly fitted or top-dose-only effect; inactive = flat fitted curve, though single readings scatter. A potency beside an inconclusive call is a rough fit, not a confirmed value. Bridge positions count the residues as written; N and C are the ends. Square brackets hold non-standard residues; d marks the D form. Peptide text beside a SMILES is read from it. * marks the point of attachment. Octanoyl(6-Me) = CCC(C)CCCCC(=O)*; Dab = NCC[CH](N)C(=O)O

The compounds below were run against Polyunsaturated fatty acid lipoxygenase ALOX12 (Homo sapiens) (UniProt P18054) (assay: qHTS Assay for Inhibitors of 12-hLO (12-human lipoxygenase)). Conditions: purified 12-hLO, xylenol orange hydroperoxide absorbance; series mostly up to 57.1 µM.
Summary of the method: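 Purified human 12hLO (150 nM), preincubated 15 min with compound, then 40 uM arachidonic acid for 30 min, room temperature, Hepes pH 7.0 with 0.01% Triton X-100. Hydroperoxide detected by ferrous iron/xylenol orange; 573/405 nm absorbance ratio gives reaction progress.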
% is set by controls: 0 for no effect and ±100 for the full control effect; potency is the fitted concentration of half-maximal effect; tags give direction and shape of the fitted curve.
Note: nearly all actives have a fitted effect of over 55% in size.

Chain of UniProt P18054 (P18054 whole entry, looked up): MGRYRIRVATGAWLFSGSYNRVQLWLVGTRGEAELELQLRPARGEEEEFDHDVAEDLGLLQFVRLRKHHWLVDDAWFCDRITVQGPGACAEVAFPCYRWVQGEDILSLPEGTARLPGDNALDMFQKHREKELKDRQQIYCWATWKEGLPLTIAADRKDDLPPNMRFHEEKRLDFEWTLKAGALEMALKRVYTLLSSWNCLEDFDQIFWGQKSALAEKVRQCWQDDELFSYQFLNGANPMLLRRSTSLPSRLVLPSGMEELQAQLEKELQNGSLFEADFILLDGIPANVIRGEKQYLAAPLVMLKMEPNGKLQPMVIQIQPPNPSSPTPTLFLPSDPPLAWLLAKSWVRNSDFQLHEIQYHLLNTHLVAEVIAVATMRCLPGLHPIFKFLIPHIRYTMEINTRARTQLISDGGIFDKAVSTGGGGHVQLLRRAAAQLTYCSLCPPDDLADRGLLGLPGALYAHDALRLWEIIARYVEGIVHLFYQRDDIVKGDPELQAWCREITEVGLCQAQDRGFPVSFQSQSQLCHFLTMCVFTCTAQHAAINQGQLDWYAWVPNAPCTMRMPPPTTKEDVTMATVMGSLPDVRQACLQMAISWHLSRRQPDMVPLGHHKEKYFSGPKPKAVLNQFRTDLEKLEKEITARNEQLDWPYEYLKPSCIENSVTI

Potency, inactive:
O=C(NCCc1ccncc1)Nc1ccccc1
COS(C)(=O)=O
COC(=O)c1[nH]c2ccc(C)cc2c1NC(=O)CN1CCN(c2ccccc2)CC1
Oc1cc2c(cc1O)[C@H]1c3ccc(O)c(O)c3OC[C@@]1(O)C2
COc1ccc(C(=O)N2CC3(CC(c4ccc(Cl)cc4)=NO3)C[C@H]2C(=O)NCC(N)=O)cc1 (stereo partly drawn)
Cc1ccc(NC(=O)COC(=O)Cn2c(C)csc2=O)cc1C
Cc1cccc2cc(COC(=O)c3ccccc3)c(=O)[nH]c12
O=C1CCC=C1C(O)c1ccc2c(c1)OCO2 (stereo not drawn)
CN(Cc1cc2ccccc2[nH]c1=O)S(C)(=O)=O
CC(=O)N1CCN(CC(=O)Nc2ccccc2Sc2ccccc2)CC1
O=c1c(-c2ccc(O)cc2)coc2c(C3OC(CO)C(O)C(O)C3O)c(O)ccc12 (stereo not drawn)
CCNc1ncc2nc(-c3cccc(C#N)c3)c(=O)n(C)c2n1

Potency, inconclusive:
COc1ccc2[nH]c(C)c(CCNC(=S)Nc3cccc(C)c3)c2c1 25.1 µM [inhibitor, single point]
C=C(C)COc1ccc(-c2[nH]ncc2-c2ccccc2OC)c(O)c1 15.8 µM [inhibitor, partial curve]
COC(=O)C(CC(=O)c1ccc(Br)cc1)n1ccnc1 (stereo not drawn) 5.01 µM [inhibitor, full curve]
COc1cc(C2NC(=O)C(C#N)=C(S)N2c2ccc(C)cc2)ccc1OC(C)C (stereo not drawn) 28.2 µM [inhibitor, single point]
CCOC(=O)CC(=O)CSc1nc2c(cc1C#N)CCCCC2 17.8 µM [inhibitor, partial curve]
CCC1(C)Cc2c(sc3[nH]c(=S)n(Cc4ccccc4)c(=O)c23)CO1 (stereo not drawn) 14.1 µM [inhibitor, partial curve]
CCN(CC)C(=O)C1=C(C)NC(=S)NC1c1cn(-c2ccccc2)nc1-c1ccc(Cl)cc1 (stereo not drawn) 35.5 µM [inhibitor, single point]
CCOC(=O)C1=C(C)c2ccccc2N(C(=O)OC)C1(C)C(=O)OCC (stereo not drawn) 28.2 µM [inhibitor, single point]
CCC(C)CCCCC(=O)NC(CCN)C(=O)NC(C(=O)NC(CCN)C(=O)NC1CCNC(=O)C(C(C)O)NC(=O)C(CCN)NC(=O)C(CCN)NC(=O)C(CC(C)C)NC(=O)C(Cc2ccccc2)NC(=O)C(CCN)NC1=O)C(C)O (stereo not drawn) ({Octanoyl(6-Me)}-[Dab]T[Dab][Dab][Dab]FL[Dab][Dab]T; lactam 4-C; configuration not given here) 8.91 µM [inhibitor, single point]
O=C(N1CCOCC1)N1CCC(c2nc(-c3ccc(S(=O)(=O)N4CCOCC4)cc3)no2)CC1 39.8 µM [inhibitor, single point]
O=P(CCCCCCCCCP(=O)(c1ccccc1)c1ccccc1)(c1ccccc1)c1ccccc1 39.8 µM [inhibitor, single point]
O=C1/C(=C\c2ccco2)SC(=S)N1c1ccc(O)cc1 31.6 µM [inhibitor, single point]
CC(=O)C1=C(C)NC(SCC(=O)c2ccc(Cl)cc2)=C(C#N)C1c1ccco1 (stereo not drawn) 11.2 µM [inhibitor, partial curve]
S=C(NCc1ccc2[nH]c3c(c2c1)CCCC3)Nc1ccccc1Cl 25.1 µM [inhibitor, partial curve]
COc1ccc(Oc2cn[nH]c2-c2ccc(O)cc2O)cc1 14.1 µM [inhibitor, partial curve]
O=C1C(CCCNC(=S)NCc2ccccc2)NC(=S)N1Cc1ccccc1 (stereo not drawn) 22.4 µM [inhibitor, single point]
COc1ccc2cc(CN(CCc3ccccc3)Cc3nnnn3Cc3ccco3)c(=O)[nH]c2c1 17.8 µM [inhibitor, partial curve]
Cc1cc(-c2n[nH]c(=S)n2-c2ccccc2C)cs1 39.8 µM [inhibitor, single point]
Cc1ccc(C(C)NC(=O)/C(C#N)=C\c2c(C)[nH]c3ccccc23)cc1 (stereo not drawn) 15.8 µM [inhibitor, partial curve]
Cc1nnc(NC(=O)c2ccc3ccccc3c2)o1 0.224 µM [inhibitor, full curve]
CCOc1ccc(-c2n[nH]c(C)c2Oc2ccccc2OC)c(O)c1 7.08 µM [inhibitor, partial curve]
CC1(C)Cc2c(C#N)c(N3CCN(C(=O)c4ccccc4Cl)CC3)nc(-c3ccco3)c2CS1 35.5 µM [inhibitor, single point]
O=c1cc(O)cc(/C=C\c2ccc(O)c(O)c2)o1 14.1 µM [inhibitor, partial curve]
Oc1c(Cl)cc(Cl)c2c1NCCC2 31.6 µM [inhibitor, single point]
O=C(Cc1ccc(Br)cc1)c1ccc(O)cc1O 3.98 µM [inhibitor, partial curve]
CCOc1ccc(S(=O)(=O)N(C(=O)c2ccco2)c2cc3sc(=O)oc3c3ccccc23)cc1 10 µM [inhibitor, partial curve]
O=C1C=C(c2ccccc2)C(=O)N1Nc1ccccc1 14.1 µM [inhibitor, partial curve]
CC1=C/C(=N\OS(=O)(=O)c2ccccc2)C=CC1=O 22.4 µM [inhibitor, single point]
CCOC(=O)C1=C(C)N(C)C(=S)NC1c1ccccc1 (stereo not drawn) 22.4 µM [inhibitor, partial curve]

Activity change, negative = inhibition, inactive:
COc1ccc2c(c1)Cc1cc(N=[N+]([O-])c3ccc4c(c3)Cc3cc(OC)ccc3-4)ccc1-2 -7.23% [at 11.4 µM]
C(=Nc1cnc2ccccc2c1)c1ccc2ccccc2n1 -1.98% [at 11.4 µM]
